Test results: paper PMC8536713
No constants are given. Whether binding was seen depends on the method and setting. Binding seen in cells or lysates may run through a third protein. Some results given as binding are weak or reduced against the parent protein; the word gives no strength. Tags and fused reporters may be left off the sequences shown.

By UniProt entry, the sequences of proteins in these tests, tags left out.
UniProt P34241: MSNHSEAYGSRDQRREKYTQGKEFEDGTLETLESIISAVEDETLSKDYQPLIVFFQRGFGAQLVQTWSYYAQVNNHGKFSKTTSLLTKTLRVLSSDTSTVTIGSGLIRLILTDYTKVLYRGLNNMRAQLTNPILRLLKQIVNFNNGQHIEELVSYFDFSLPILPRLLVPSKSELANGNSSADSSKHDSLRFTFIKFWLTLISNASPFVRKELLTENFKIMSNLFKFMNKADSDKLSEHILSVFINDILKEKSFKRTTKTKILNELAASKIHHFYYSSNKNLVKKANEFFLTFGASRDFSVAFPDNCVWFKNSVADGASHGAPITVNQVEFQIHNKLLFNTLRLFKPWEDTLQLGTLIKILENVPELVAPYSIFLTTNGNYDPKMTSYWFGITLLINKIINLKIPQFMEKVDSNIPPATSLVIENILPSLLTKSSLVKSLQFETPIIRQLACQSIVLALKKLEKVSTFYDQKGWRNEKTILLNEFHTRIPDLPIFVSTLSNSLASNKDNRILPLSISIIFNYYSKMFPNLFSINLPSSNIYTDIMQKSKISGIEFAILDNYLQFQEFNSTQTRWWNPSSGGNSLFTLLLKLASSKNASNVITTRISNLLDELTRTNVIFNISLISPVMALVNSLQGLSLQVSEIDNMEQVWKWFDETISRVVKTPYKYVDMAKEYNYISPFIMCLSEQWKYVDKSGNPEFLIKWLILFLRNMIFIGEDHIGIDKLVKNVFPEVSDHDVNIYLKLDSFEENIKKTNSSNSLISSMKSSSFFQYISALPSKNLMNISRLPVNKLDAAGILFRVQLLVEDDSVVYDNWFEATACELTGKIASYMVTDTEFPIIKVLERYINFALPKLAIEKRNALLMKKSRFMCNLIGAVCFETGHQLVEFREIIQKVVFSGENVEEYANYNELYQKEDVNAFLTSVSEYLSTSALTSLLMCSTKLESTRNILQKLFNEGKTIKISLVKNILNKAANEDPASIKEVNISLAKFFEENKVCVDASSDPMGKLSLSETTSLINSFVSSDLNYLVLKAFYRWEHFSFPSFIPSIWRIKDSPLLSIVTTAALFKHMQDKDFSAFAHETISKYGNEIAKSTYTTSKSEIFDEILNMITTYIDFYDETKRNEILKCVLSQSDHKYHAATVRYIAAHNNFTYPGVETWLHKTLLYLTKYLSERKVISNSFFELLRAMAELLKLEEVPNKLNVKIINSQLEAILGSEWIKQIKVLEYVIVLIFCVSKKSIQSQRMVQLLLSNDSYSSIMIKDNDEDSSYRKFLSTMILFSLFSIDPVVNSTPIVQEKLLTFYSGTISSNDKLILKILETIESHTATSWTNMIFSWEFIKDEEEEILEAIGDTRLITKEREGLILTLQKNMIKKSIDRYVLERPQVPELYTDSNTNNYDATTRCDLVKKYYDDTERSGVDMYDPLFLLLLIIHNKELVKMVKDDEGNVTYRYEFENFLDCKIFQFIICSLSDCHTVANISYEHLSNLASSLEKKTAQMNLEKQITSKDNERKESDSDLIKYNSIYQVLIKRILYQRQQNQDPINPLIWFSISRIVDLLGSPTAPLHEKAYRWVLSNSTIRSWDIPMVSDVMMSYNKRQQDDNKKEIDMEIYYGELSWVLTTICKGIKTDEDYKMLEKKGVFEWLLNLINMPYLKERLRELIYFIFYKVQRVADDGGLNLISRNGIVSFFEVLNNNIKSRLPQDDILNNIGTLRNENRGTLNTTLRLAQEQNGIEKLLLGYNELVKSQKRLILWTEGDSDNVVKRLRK

Key:
Assay in all cases: pull-down; pre-60S particles isolated via affinity-tagged assembly factors from yeast strains expressing Dbp7-GFP; Dbp7-GFP detected in the particles (Supplementary Fig. 1c)
[1] = target: T1, affinity-tagged Npa2 (S. cerevisiae) (UniProt P47108)
T1 sequence: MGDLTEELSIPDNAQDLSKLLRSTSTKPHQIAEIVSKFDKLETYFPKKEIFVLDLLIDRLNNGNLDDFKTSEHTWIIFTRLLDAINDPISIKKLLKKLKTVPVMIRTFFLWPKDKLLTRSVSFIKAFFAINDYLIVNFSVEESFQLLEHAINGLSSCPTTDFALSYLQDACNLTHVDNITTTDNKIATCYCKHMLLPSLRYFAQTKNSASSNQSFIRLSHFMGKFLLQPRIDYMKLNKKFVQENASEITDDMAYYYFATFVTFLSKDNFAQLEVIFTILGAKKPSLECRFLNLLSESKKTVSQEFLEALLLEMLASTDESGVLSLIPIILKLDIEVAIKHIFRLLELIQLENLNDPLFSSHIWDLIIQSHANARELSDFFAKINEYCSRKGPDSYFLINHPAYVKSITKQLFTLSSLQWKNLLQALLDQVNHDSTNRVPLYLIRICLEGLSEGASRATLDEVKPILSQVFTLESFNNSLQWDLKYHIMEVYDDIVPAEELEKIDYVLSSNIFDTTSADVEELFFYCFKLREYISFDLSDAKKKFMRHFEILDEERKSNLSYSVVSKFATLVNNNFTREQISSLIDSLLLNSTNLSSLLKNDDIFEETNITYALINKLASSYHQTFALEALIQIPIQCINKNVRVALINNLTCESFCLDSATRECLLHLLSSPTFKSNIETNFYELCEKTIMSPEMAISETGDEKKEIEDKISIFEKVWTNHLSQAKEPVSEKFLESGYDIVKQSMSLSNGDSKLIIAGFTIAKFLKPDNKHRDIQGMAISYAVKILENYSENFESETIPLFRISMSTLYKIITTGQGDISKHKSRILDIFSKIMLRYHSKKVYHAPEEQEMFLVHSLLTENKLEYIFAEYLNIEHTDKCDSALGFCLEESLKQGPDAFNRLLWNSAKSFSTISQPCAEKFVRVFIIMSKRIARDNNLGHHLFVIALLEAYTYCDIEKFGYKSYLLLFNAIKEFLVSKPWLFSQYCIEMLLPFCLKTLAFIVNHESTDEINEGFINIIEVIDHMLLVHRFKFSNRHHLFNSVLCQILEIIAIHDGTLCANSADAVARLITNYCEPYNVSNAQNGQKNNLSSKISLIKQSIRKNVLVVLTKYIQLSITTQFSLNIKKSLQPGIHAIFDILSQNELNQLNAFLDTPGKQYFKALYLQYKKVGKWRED

[2] = target: T2, affinity-tagged Rpf2 (S. cerevisiae) (UniProt P36160)
T2 sequence: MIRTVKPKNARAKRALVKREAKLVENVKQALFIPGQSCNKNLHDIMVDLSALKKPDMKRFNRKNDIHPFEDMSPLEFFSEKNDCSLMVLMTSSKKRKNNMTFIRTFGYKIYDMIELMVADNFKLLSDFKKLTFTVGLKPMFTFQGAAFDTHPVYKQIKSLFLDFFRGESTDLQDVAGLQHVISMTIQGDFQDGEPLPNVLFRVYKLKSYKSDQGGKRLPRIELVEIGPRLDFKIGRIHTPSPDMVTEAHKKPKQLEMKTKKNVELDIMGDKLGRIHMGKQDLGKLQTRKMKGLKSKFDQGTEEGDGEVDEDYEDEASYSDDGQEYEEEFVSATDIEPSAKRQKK

[3] = target: affinity-tagged Npa1 (S. cerevisiae) (UniProt P34241)

Measured: binding

B1: Dbp7-GFP (enzyme, UniProt P36120 1-742)
chain: MSDEDSMLLNFTTNEDTAGSSYKQAAKVTGGRWKDRRRMKMKLEGKTVSRKRKANTTGDEGIIPGRGENSIKKLHKESSYSSEEQEKYKGRNAHNTQGRTLPADSQFVSSLFTSNREITTAVNTNIHDENVAINPSNAPLKGDQFASLGVSSLLVSHLEQKMRIKKPTSIQKQAIPQIIGNAGKNDFFIHAQTGSGKTLSYLLPIISTILNMDTHVDRTSGAFALVIAPTRELASQIYHVCSTLVSCCHYLVPCLLIGGERKKSEKARLRKGCNFIIGTPGRVLDHLQNTKVIKEQLSQSLRYIVLDEGDKLMELGFDETISEIIKIVHDIPINSEKFPKLPHKLVHMLCSATLTDGVNRLRNVALKDYKLISNGTKKDSDIVTVAPDQLLQRITIVPPKLRLVTLAATLNNITKDFIASGQQSKTLRTIVFVSCSDSVEFHYDAFSGSDGHHKNLTGDSVRLLTKGNTMFPCFSDSRDPDVVIYKLHGSLSQQMRTSTLQHFARDNEATKGKHLIMFCTDVASRGLDLPHVGSVIELDPPFAVEDHLHRVGRTARAGEKGESLLFLLPGEEEKYMDYIQPYHPMGWELLKFDKEILMPAFKDVNVNRNDKFIRKDEKSSKNKDVGDKEYEWDTNATTWHLNIERRVVGDSAFKNLAVKGFISHVRAYATHISQEKKFFNVKFLHLGHLAKSFGLRERPKAMGLQSSKDGNSEKKPTKENSKNKMFRMARMAEKQIASEFNY
binds: all assays above
